# Assay results: the supplement of paper PMC8728848
# This is one part of the list.
# B1: SP16664B-bot-474-25-474 (Bacteroides ovatus) (protein)
# chain: CEEDIEIGNKIDESSYLASTQLSGLLLDENTNKNSSVIELRNNEYSTNVVFRLSKLPQKGVDVQIAVEESYAAIYNTIHETDFEVFPAANVKIANNGTFVLAPDDKVTPSVKVTLTAFDGMEEDKTYIVPLTVTSSTEGVTFTETSKHMVLLVQDYRNKPNTNKGEDAVQTVLYFEVNDTNPLNALEFLTESGKYFFDHIVLFAANINWDPEKQRVYLANNENVQFLLDNNDKYLQPLRKAGMKIIISILGNHDEAGVAQLSDMGAREFARELAAYCRAYNLDGVAFDDEYSNSPDLSNPWLASPSAYAGSRLMYECKAVMPEKIVSLYNLGNMYSSSLQVIDGIEPGQYCDYAVADYGGAAGPGTGMTLKQCAGMSIELRRGSGNSSESTARSRKEAGYGYYMFFALDPSLYGSQVYRCQSVCKGLYDETLVYPSYYYKKNSTEREAIN
# How the values were obtained:
# Assay in all cases: glycan array binding signal (z-score within array); higher = stronger binding
# Settings in all cases: glycan notation: IUPAC condensed, linker removed
# [1] = biological target: Neu5Ac(a2-6)Gal(b1-4)GlcNAc(b1-2)Man(a1-3)[GlcNAc(b1-4)][Neu5Ac(a2-6)Gal(b1-4)GlcNAc(b1-2)Man(a1-6)]Man(b1-4)GlcNAc(b1-4)GlcNAc
# In short: (§1)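 The Consortium for Functional Glycomics database supplied 3228 glycan arrays, of which those lacking an available protein sequence were dropped. The binding signal, a within-array Z-score, was averaged across arrays of the same protein sequence and across linkers. Negative scores can be read as non-binding.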
# [2] = biological target: Neu5Ac(a2-6)Gal(b1-4)GlcNAc(b1-2)Man(a1-3)[Man(a1-6)]Man(b1-4)GlcNAc(b1-4)GlcNAc
# In short: as §1
# [3] = biological target: Neu5Ac(a2-6)Gal(b1-4)GlcNAc(b1-2)Man(a1-3)[Neu5Ac(a2-3)Gal(b1-4)GlcNAc(b1-2)Man(a1-6)]Man(b1-4)GlcNAc(b1-4)GlcNAc
# In short: as §1
# [4] = biological target: Neu5Ac(a2-6)Gal(b1-4)GlcNAc(b1-2)Man(a1-3)[Neu5Ac(a2-6)Gal(b1-4)GlcNAc(b1-2)Man(a1-6)]Man(b1-4)GlcNAc(b1-4)GlcNAc
# In short: as §1
# [5] = biological target: Neu5Ac(a2-6)Gal(b1-4)GlcNAc(b1-2)Man(a1-3)[Neu5Ac(a2-6)Gal(b1-4)GlcNAc(b1-2)Man(a1-6)]Man(b1-4)GlcNAc(b1-4)[Fuc(a1-6)]GlcNAc
# In short: as §1
# [6] = biological target: Neu5Ac(a2-6)Gal(b1-4)GlcNAc(b1-2)Man(a1-6)Man(b1-4)GlcNAc(b1-4)GlcNAc
# In short: as §1
# [7] = biological target: Neu5Ac(a2-6)Gal(b1-4)GlcNAc(b1-2)Man(a1-6)[Gal(b1-4)GlcNAc(b1-2)Man(a1-3)]Man(b1-4)GlcNAc(b1-4)GlcNAc
# In short: as §1
# [8] = biological target: Neu5Ac(a2-6)Gal(b1-4)GlcNAc(b1-2)Man(a1-6)[GlcNAc(b1-2)Man(a1-3)]Man(b1-4)GlcNAc(b1-4)GlcNAc
# In short: as §1
# [9] = biological target: Neu5Ac(a2-6)Gal(b1-4)GlcNAc(b1-2)Man(a1-6)[Man(a1-3)]Man(b1-4)GlcNAc(b1-4)GlcNAc
# In short: as §1
# [10] = biological target: Neu5Ac(a2-6)Gal(b1-4)GlcNAc(b1-2)[Neu5Ac(a2-6)Gal(b1-4)GlcNAc(b1-4)]Man(a1-3)[GlcNAc(b1-4)][Neu5Ac(a2-6)Gal(b1-4)GlcNAc(b1-2)[Neu5Ac(a2-6)Gal(b1-4)GlcNAc(b1-6)]Man(a1-6)]Man(b1-4)GlcNAc(b1-4)GlcNAc
# In short: as §1
# [11] = biological target: Neu5Ac(a2-6)Gal(b1-4)GlcNAc(b1-2)[Neu5Ac(a2-6)Gal(b1-4)GlcNAc(b1-4)]Man(a1-3)[GlcNAc(b1-4)][Neu5Ac(a2-6)Gal(b1-4)GlcNAc(b1-4)Man(a1-6)]Man(b1-4)GlcNAc(b1-4)GlcNAc
# In short: as §1
# [12] = biological target: Neu5Ac(a2-6)Gal(b1-4)GlcNAc(b1-2)[Neu5Ac(a2-6)Gal(b1-4)GlcNAc(b1-6)]Man(a1-6)[Neu5Ac(a2-6)Gal(b1-4)GlcNAc(b1-2)Man(a1-3)][GlcNAc(b1-4)]Man(b1-4)GlcNAc(b1-4)GlcNAc
# In short: as §1
# [13] = biological target: Neu5Ac(a2-6)Gal(b1-4)GlcNAc(b1-3)Gal(b1-3)GlcNAc
# In short: as §1
# [14] = biological target: Neu5Ac(a2-6)Gal(b1-4)GlcNAc(b1-3)Gal(b1-4)GlcNAc
# In short: as §1
# [15] = biological target: Neu5Ac(a2-6)Gal(b1-4)GlcNAc(b1-3)Gal(b1-4)GlcNAc(b1-2)Man(a1-3)[Neu5Ac(a2-6)Gal(b1-4)GlcNAc(b1-3)Gal(b1-4)GlcNAc(b1-2)Man(a1-6)]GalNAc
# In short: as §1
# [16] = biological target: Neu5Ac(a2-6)Gal(b1-4)GlcNAc(b1-3)Gal(b1-4)GlcNAc(b1-3)Gal(b1-4)GlcNAc
# In short: as §1
# [17] = biological target: Neu5Ac(a2-6)Gal(b1-4)GlcNAc(b1-3)Gal(b1-4)GlcNAc(b1-3)Gal(b1-4)GlcNAc(b1-2)Man(a1-3)[Neu5Ac(a2-6)Gal(b1-4)GlcNAc(b1-3)Gal(b1-4)GlcNAc(b1-3)Gal(b1-4)GlcNAc(b1-2)Man(a1-6)]GalNAc
# In short: as §1
# [18] = biological target: Neu5Ac(a2-6)Gal(b1-4)GlcNAc(b1-3)Gal(b1-4)GlcNAc(b1-3)GalNAc
# In short: as §1
# [19] = biological target: Neu5Ac(a2-6)Gal(b1-4)GlcNAc(b1-3)Gal(b1-4)GlcNAc(b1-3)[Neu5Ac(a2-6)Gal(b1-4)GlcNAc(b1-3)Gal(b1-4)GlcNAc(b1-6)]GalNAc
# In short: as §1
# [20] = biological target: Neu5Ac(a2-6)Gal(b1-4)GlcNAc(b1-3)Gal(b1-4)GlcNAc(b1-6)[Gal(b1-3)]GalNAc
# In short: as §1
# [21] = biological target: Neu5Ac(a2-6)Gal(b1-4)GlcNAc(b1-3)Gal(b1-4)[Fuc(a1-3)]GlcNAc(b1-3)Gal(b1-4)[Fuc(a1-3)]GlcNAc
# In short: as §1
# [22] = biological target: Neu5Ac(a2-6)Gal(b1-4)GlcNAc(b1-3)GalNAc
# In short: as §1
# [23] = biological target: Neu5Ac(a2-6)Gal(b1-4)GlcNAc(b1-3)[Neu5Ac(a2-6)Gal(b1-4)GlcNAc(b1-6)]GalNAc
# In short: as §1
# [24] = biological target: Neu5Ac(a2-6)Gal(b1-4)GlcNAc(b1-6)GalNAc
# In short: as §1
# [25] = biological target: Neu5Ac(a2-6)Gal(b1-4)GlcNAc(b1-6)[Gal(b1-3)GlcNAc(b1-3)]Gal(b1-4)Glc
# In short: as §1
# [26] = biological target: Neu5Ac(a2-6)Gal(b1-4)GlcNAc(b1-6)[Gal(b1-3)]GalNAc
# In short: as §1
# [27] = biological target: Neu5Ac(a2-6)Gal(b1-4)GlcNAc6S
# In short: as §1
# [28] = biological target: Neu5Ac(a2-6)GalNAc
# In short: as §1
# [29] = biological target: Neu5Ac(a2-6)GalNAc(b1-4)GlcNAc
# In short: as §1
# [30] = biological target: Neu5Ac(a2-6)GalNAc(b1-4)GlcNAc6S
# In short: as §1
# [31] = biological target: Neu5Ac(a2-6)GlcNAc(b1-4)GlcNAc
# In short: as §1
binder,measurement,setting,value
B1,glycan array binding signal (z-score),[1],-0.144
same,glycan array binding signal (z-score),[2],-0.56
same,glycan array binding signal (z-score),[3],0.227
same,glycan array binding signal (z-score),[4],-0.081
same,glycan array binding signal (z-score),[5],0.132
same,glycan array binding signal (z-score),[6],-0.494
same,glycan array binding signal (z-score),[7],-0.247
same,glycan array binding signal (z-score),[8],-0.007
same,glycan array binding signal (z-score),[9],-0.485
same,glycan array binding signal (z-score),[10],-0.005
same,glycan array binding signal (z-score),[11],0.138
same,glycan array binding signal (z-score),[12],0.144
same,glycan array binding signal (z-score),[13],-0.218
same,glycan array binding signal (z-score),[14],-0.15
same,glycan array binding signal (z-score),[15],0.926
same,glycan array binding signal (z-score),[16],-0.225
same,glycan array binding signal (z-score),[17],0.91
same,glycan array binding signal (z-score),[18],-0.058
same,glycan array binding signal (z-score),[19],1.36
same,glycan array binding signal (z-score),[20],-0.063
same,glycan array binding signal (z-score),[21],0.069
same,glycan array binding signal (z-score),[22],-0.034
same,glycan array binding signal (z-score),[23],1.34
same,glycan array binding signal (z-score),[24],0.178
same,glycan array binding signal (z-score),[25],-0.321
same,glycan array binding signal (z-score),[26],-0.15
same,glycan array binding signal (z-score),[27],-0.154
same,glycan array binding signal (z-score),[28],-0.18
same,glycan array binding signal (z-score),[29],0.101
same,glycan array binding signal (z-score),[30],-0.06
same,glycan array binding signal (z-score),[31],-0.371
